According to the supplement of paper PMC10126150:
Sequences with one replicate were seen in a single cluster, so their values are uncertain.

System: ATP
Assay: switch fluorescence ratio, 500 uM ATP over buffer (Cy3 cluster intensity, sum of 5 cycles each) (fold (ratio)); higher = stronger signal-on switching upon ATP binding; sequences stand for … in TCGTCGGCAGCGTCAGATGTGTATAAGAGACAGTTTTTTTTTTTTTTTTTTTTTTTTT…TC
Details: aptamer strand: ATP DNA aptamer (quencher-CACCTGGGGGAGTATTGCGGAGGAAGG + anchor), 100 nM annealed; ATP concentration: 500 uM; one replicate
Procedure, shortened: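 Clusters with intensities outside 100-1000 RFU were excluded. The remaining Cy3-labelled switching-strand clusters on a modified Illumina MiSeq flow-cell had been annealed to 100 nM quencher-labelled ATP aptamer and imaged in selection buffer, then after 15 min with 500 uM ATP at 22 °C, for five cycles separated by NaOH stripping and re-annealing. The fluorescence ratio, averaged per switch-domain sequence, is each cluster's summed target-cycle Cy3 intensity over its summed buffer-cycle Cy3 intensity.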
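Further: ATP exposure 15 min at 22 °C before imaging.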

| Sequence | switch fluorescence ratio |
| --- | --- |
| AAGTTCCCGG | 0.994 |
| AAGTTCGGCA | 0.988 |
| AAGTTCGTTC | 0.978 |
| AAGTTCTGA | 1.01 |
| AAGTTCTGTT | 0.98 |
| AAGTTGACA | 1 |
| AAGTTGCGAG | 1.02 |
| AAGTTGCTCT | 0.968 |
| AAGTTGCTTT | 1.02 |
| AAGTTGGATC | 0.981 |
| AAGTTTGGTA | 1 |
| AATAAAACA | 0.969 |
| AATAAACCGG | 0.994 |
| AATAAACTGG | 1.06 |
| AATAAATCG | 1.01 |
| AATAAATCTC | 0.969 |
| AATAACATTG | 0.982 |
| AATAACCGGT | 1.02 |
| AATAACTAAA | 1.01 |
| AATAACTGGG | 1.08 |
| AATAAGCGTT | 0.982 |
| AATAAGTGTC | 1.2 |
| AATACAGGTA | 0.992 |
| AATACCAGGC | 1.1 |
| AATACCAGGG | 1.17 |
| AATACGTGTT | 0.994 |

| Sequence | switch fluorescence ratio |
| --- | --- |
| AATAGAAGAG | 1.02 |
| AATAGACAGT | 1.01 |
| AATAGAGGTA | 0.983 |
| AATAGCTGTA | 0.955 |
| AATAGGCCCG | 0.973 |
| AATAGTAAGG | 0.996 |
| AATAGTCGCT | 1 |
| AATATCAGGT | 1.04 |
| AATATCAGT | 1.02 |
| AATATGACCC | 1.15 |
| AATATGAGAA | 0.992 |
| AATATGCATC | 1.01 |
| AATATGCCTA | 0.964 |
| AATATGCTAA | 0.998 |
| AATATGGCAT | 0.996 |
| AATATTAAAG | 0.994 |
| AATATTGTTG | 0.944 |
| AATCAACAGC | 1.03 |
| AATCACGGTA | 1.21 |
| AATCACTAGG | 1.05 |
| AATCACTATT | 1.02 |
| AATCACTTAG | 1.09 |
| AATCAGGTGT | 2.56 |
| AATCAGTCA | 0.99 |
| AATCATATGC | 1.02 |
| AATCATTGAA | 0.981 |

| Sequence | switch fluorescence ratio |
| --- | --- |
| AATCCCCACA | 1.03 |
| AATCCCTCAC | 1.07 |
| AATCCTAACT | 0.977 |
| AATCCTAATA | 1.04 |
| AATCCTAGC | 1.03 |
| AATCGAAACC | 1.1 |
| AATCGAGAC | 1.03 |
| AATCGATGCG | 0.954 |
| AATCGCAAAT | 1.27 |
| AATCGTAACC | 1.04 |
| AATCGTAACT | 1.02 |
| AATCGTAATT | 1.04 |
| AATCGTAT | 0.981 |
| AATCGTGCGT | 0.95 |
| AATCGTTGTT | 0.966 |
| AATCTAGTTT | 1 |
| AATCTGTGG | 0.994 |
| AATCTTCGG | 0.997 |
| AATCTTGGGG | 1.01 |
| AATGAAATTC | 1.09 |
| AATGAATAAC | 1.01 |
| AATGACCAGG | 0.96 |
| AATGAGCCA | 1 |
| AATGAGGAAG | 1.05 |
| AATGAGTCTA | 0.982 |
| AATGCACTTA | 1.08 |

| Sequence | switch fluorescence ratio |
| --- | --- |
| AATGCCAGTT | 1.04 |
| AATGCCATAA | 0.989 |
| AATGCCCGAG | 0.98 |
| AATGCGCATG | 0.988 |
| AATGCGGCTG | 1.1 |
| AATGCGTTAC | 1.35 |
| AATGCTCAGA | 1.02 |
| AATGCTTAAA | 1.02 |
| AATGGAAACC | 1.06 |
| AATGGAGCGG | 0.987 |
| AATGGAGTAC | 1.07 |
| AATGGCGAGC | 0.975 |
| AATGGGACCA | 1.15 |
| AATGGTAGGC | 0.968 |
| AATGGTCCAG | 1.01 |
| AATGTAAATC | 1.08 |
| AATGTAGCTT | 0.986 |
| AATGTAGGCC | 1.01 |
| AATGTAGTCC | 1 |
| AATGTCCCAG | 0.994 |
| AATGTGAGCA | 0.987 |
| AATGTGCATG | 0.93 |
| AATGTTAACT | 1.03 |
| AATGTTGCCT | 1.03 |
| AATTACATGT | 1.03 |
| AATTACCTAT | 1.04 |

| Sequence | switch fluorescence ratio |
| --- | --- |
| AATTACTAAA | 1.04 |
| AATTACTCCT | 1.18 |
| AATTACTGT | 1.02 |
| AATTAGCATT | 1.04 |
| AATTAGCTAT | 1.01 |
| AATTATGATT | 1.05 |
| AATTCACCTC | 1.05 |
| AATTCAGCGC | 0.975 |
| AATTCAGTCG | 0.981 |
| AATTCATTCT | 1.02 |
| AATTCCGCCG | 1.07 |
| AATTCTAACA | 1.01 |
| AATTGAAATG | 1.04 |
| AATTGCAGAA | 0.987 |
| AATTGCCGGA | 1.04 |
| AATTGCGGAC | 1 |
| AATTGGCCTC | 1.03 |
| AATTGGCTT | 1.34 |
| AATTGGTCTG | 0.996 |
| AATTGGTGAG | 1.03 |
| AATTGTAGCA | 0.988 |
| AATTGTGCTA | 1.01 |
| AATTGTGTCG | 0.972 |
| AATTGTTAG | 0.99 |
| AATTTAAACA | 1 |
| AATTTAACTC | 1.04 |

| Sequence | switch fluorescence ratio |
| --- | --- |
| AATTTACGTA | 1.12 |
| AATTTAGAGC | 1.01 |
| AATTTAGCAC | 1.05 |
| AATTTAGGTA | 1.02 |
| AATTTAGTGG | 0.991 |
| AATTTAGTT | 1.02 |
| AATTTCGCCG | 1.03 |
| AATTTCTAGA | 0.969 |
| AATTTGCATC | 0.967 |
| AATTTGGGAC | 0.977 |
| AATTTGTGTC | 1.04 |
| AATTTTCATA | 1.01 |
| AATTTTGCGC | 0.976 |
| AATTTTGGAA | 1.01 |
| ACAAAAGAT | 0.948 |
| ACAAAAGGCG | 0.979 |
| ACAAAATTTA | 1.01 |
| ACAAAGTCGG | 1 |
| ACAACATTTT | 1.04 |
| ACAACGGTCC | 1.1 |
| ACAACTATCG | 1.06 |
| ACAAGAATGC | 1.1 |
| ACAAGAGCAT | 0.996 |
| ACAAGCTTTG | 0.994 |
| ACAAGGACAG | 1.06 |
| ACAAGGAGC | 0.957 |

| Sequence | switch fluorescence ratio |
| --- | --- |
| ACAAGGGG | 0.979 |
| ACAAGTACTG | 1.27 |
| ACAAGTGGAA | 1.01 |
| ACAAGTGTGG | 0.992 |
| ACAAGTTCA | 0.994 |
| ACAATATAT | 1.02 |
| ACAATCCTCC | 1.68 |
| ACAATGCCGT | 0.977 |
| ACAATGCTTC | 1.11 |
| ACAATGGTGC | 1.08 |
| ACAATGTTGT | 0.956 |
| ACAATTCCA | 1.02 |
| ACAATTCCGA | 1.05 |
| ACACAAGCAT | 1.09 |
| ACACAGGGAT | 0.981 |
| ACACATGTCT | 1.02 |
| ACACCGACGT | 1.56 |
| ACACCGCTTG | 1.14 |
| ACACCTGGTG | 1.37 |
| ACACGATGCG | 1.01 |
| ACACGATTAG | 0.988 |
| ACACGCCCAG | 1.33 |
| ACACGCCGCA | 1.15 |
| ACACGGGATA | 1.09 |
| ACACGGGTAT | 1.01 |
| ACACGTGGAA | 1 |

| Sequence | switch fluorescence ratio |
| --- | --- |
| ACACGTTGA | 1 |
| ACACGTTGGT | 1.01 |
| ACACTCGGTA | 1.04 |
| ACACTTGGAG | 1.03 |
| ACACTTGGTG | 1.05 |
| ACAGAACACT | 1.11 |
| ACAGAGCGGT | 1.13 |
| ACAGAGGTAA | 1.02 |
| ACAGATGCTC | 1.05 |
| ACAGATGCTT | 1.02 |
| ACAGCAAGGT | 1.19 |
| ACAGCACAAA | 1.26 |
| ACAGCACCTA | 1.28 |
| ACAGCTCTTT | 1.03 |
| ACAGGATGAA | 1.01 |
| ACAGGCCCGT | 1.03 |
| ACAGGCGCAA | 1.1 |
| ACAGGGACGG | 1.03 |
| ACAGGGGA | 1.89 |
